From the supplement of paper PMC8728848
Some of the results follow.

Key:
Assay in all cases: glycan array binding signal (z-score within array); higher = stronger binding
Settings in all cases: glycan notation: IUPAC condensed, linker removed
[1] = biological target: GlcNAc(b1-3)Gal(b1-4)GlcNAc(b1-3)Gal(b1-4)GlcNAc(b1-3)Gal(b1-4)GlcNAc(b1-2)Man(a1-3)[GlcNAc(b1-3)Gal(b1-4)GlcNAc(b1-3)Gal(b1-4)GlcNAc(b1-3)Gal(b1-4)GlcNAc(b1-2)Man(a1-6)]Man(b1-4)GlcNAc(b1-4)[Fuc(a1-6)]GlcNAc
Procedure, shortened: (§1)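 The Consortium for Functional Glycomics database supplied 3228 glycan arrays, of which those lacking an available protein sequence were dropped. The binding signal, a within-array Z-score, was averaged across arrays of the same protein sequence and across linkers. Negative scores can be read as non-binding.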

[2] = biological target: GlcNAc(b1-3)Gal(b1-4)GlcNAc(b1-3)Gal(b1-4)GlcNAc(b1-3)Gal(b1-4)GlcNAc(b1-2)[GlcNAc(b1-3)Gal(b1-4)GlcNAc(b1-3)Gal(b1-4)GlcNAc(b1-3)Gal(b1-4)GlcNAc(b1-6)]Man(a1-6)[GlcNAc(b1-3)Gal(b1-4)GlcNAc(b1-3)Gal(b1-4)GlcNAc(b1-3)Gal(b1-4)GlcNAc(b1-2)Man(a1-3)]Man(b1-4)GlcNAc(b1-4)[Fuc(a1-6)]GlcNAc
Procedure, shortened: as §1

[3] = biological target: GlcNAc(b1-3)Gal(b1-4)GlcNAc(b1-3)Gal(b1-4)GlcNAc(b1-3)Gal(b1-4)GlcNAc(b1-3)Gal(b1-4)GlcNAc(b1-2)Man(a1-3)[GlcNAc(b1-3)Gal(b1-4)GlcNAc(b1-3)Gal(b1-4)GlcNAc(b1-3)Gal(b1-4)GlcNAc(b1-3)Gal(b1-4)GlcNAc(b1-2)Man(a1-6)]Man(b1-4)GlcNAc(b1-4)GlcNAc
Procedure, shortened: as §1

[4] = biological target: GlcNAc(b1-3)Gal(b1-4)GlcNAc(b1-3)Gal(b1-4)GlcNAc(b1-3)Gal(b1-4)GlcNAc(b1-3)Gal(b1-4)GlcNAc(b1-2)Man(a1-3)[GlcNAc(b1-3)Gal(b1-4)GlcNAc(b1-3)Gal(b1-4)GlcNAc(b1-3)Gal(b1-4)GlcNAc(b1-3)Gal(b1-4)GlcNAc(b1-2)Man(a1-6)]Man(b1-4)GlcNAc(b1-4)[Fuc(a1-6)]GlcNAc
Procedure, shortened: as §1

[5] = biological target: GlcNAc(b1-3)Gal(b1-4)GlcNAc(b1-3)Gal(b1-4)GlcNAc(b1-3)Gal(b1-4)GlcNAc(b1-3)Gal(b1-4)GlcNAc(b1-2)[GlcNAc(b1-3)Gal(b1-4)GlcNAc(b1-3)Gal(b1-4)GlcNAc(b1-3)Gal(b1-4)GlcNAc(b1-3)Gal(b1-4)GlcNAc(b1-6)]Man(a1-6)[GlcNAc(b1-3)Gal(b1-4)GlcNAc(b1-3)Gal(b1-4)GlcNAc(b1-3)Gal(b1-4)GlcNAc(b1-3)Gal(b1-4)GlcNAc(b1-2)Man(a1-3)]Man(b1-4)GlcNAc(b1-4)[Fuc(a1-6)]GlcNAc
Procedure, shortened: as §1

[6] = biological target: GlcNAc(b1-3)Gal(b1-4)GlcNAc(b1-3)Gal(b1-4)GlcNAc(b1-3)GalNAc
Procedure, shortened: as §1

[7] = biological target: GlcNAc(b1-3)Gal(b1-4)GlcNAc(b1-3)GalNAc
Procedure, shortened: as §1

[8] = biological target: GlcNAc(b1-3)Gal(b1-4)GlcNAc(b1-3)[GlcNAc(b1-3)Gal(b1-4)GlcNAc(b1-3)]GalNAc
Procedure, shortened: as §1

[9] = biological target: GlcNAc(b1-3)Gal(b1-4)GlcNAc(b1-6)[Gal(b1-3)]GalNAc
Procedure, shortened: as §1

[10] = biological target: GlcNAc(b1-3)Gal(b1-4)GlcNAc(b1-6)[GlcNAc(b1-3)Gal(b1-3)]GalNAc
Procedure, shortened: as §1

[11] = biological target: GlcNAc(b1-3)Gal(b1-4)GlcNAc(b1-6)[GlcNAc(b1-3)]Gal(b1-4)GlcNAc
Procedure, shortened: as §1

GlcNAc(b1-3)GalNAc = biological target: GlcNAc(b1-3)GalNAc
Procedure, shortened: as §1

GlcNAc(b1-3)Man = biological target: GlcNAc(b1-3)Man
Procedure, shortened: as §1

[12] = biological target: GlcNAc(b1-3)[GlcNAc(b1-4)][GlcNAc(b1-6)]GlcNAc
Procedure, shortened: as §1

[13] = biological target: GlcNAc(b1-3)[GlcNAc(b1-6)]Gal(b1-4)GlcNAc
Procedure, shortened: as §1

[14] = biological target: GlcNAc(b1-3)[GlcNAc(b1-6)]GalNAc
Procedure, shortened: as §1

[15] = biological target: GlcNAc(b1-3)[GlcNAc(b1-6)]GlcNAc
Procedure, shortened: as §1

[16] = biological target: GlcNAc(b1-4)Gal(b1-4)GlcNAc
Procedure, shortened: as §1

GlcNAc(b1-4)GlcNAc = biological target: GlcNAc(b1-4)GlcNAc
Procedure, shortened: as §1

[17] = biological target: GlcNAc(b1-4)GlcNAc(b1-4)GlcNAc
Procedure, shortened: as §1

[18] = biological target: GlcNAc(b1-4)GlcNAc(b1-4)GlcNAc(b1-4)GlcNAc(b1-4)GlcNAc
Procedure, shortened: as §1

[19] = biological target: GlcNAc(b1-4)GlcNAc(b1-4)GlcNAc(b1-4)GlcNAc(b1-4)GlcNAc(b1-4)GlcNAc
Procedure, shortened: as §1

[20] = biological target: GlcNAc(b1-4)[GlcNAc(b1-6)]GalNAc
Procedure, shortened: as §1

[21] = biological target: GlcNAc(b1-6)Gal(b1-4)GlcNAc
Procedure, shortened: as §1

GlcNAc(b1-6)GalNAc = biological target: GlcNAc(b1-6)GalNAc
Procedure, shortened: as §1

[22] = biological target: GlcNAc6S(b1-3)Gal(b1-4)GlcNAc
Procedure, shortened: as §1

Kdn(a2-3)Gal(b1-3)GalNAc = biological target: Kdn(a2-3)Gal(b1-3)GalNAc
Procedure, shortened: as §1

Kdn(a2-3)Gal(b1-3)GlcNAc = biological target: Kdn(a2-3)Gal(b1-3)GlcNAc
Procedure, shortened: as §1

Kdn(a2-3)Gal(b1-4)Glc = biological target: Kdn(a2-3)Gal(b1-4)Glc
Procedure, shortened: as §1

Kdn(a2-3)Gal(b1-4)GlcNAc = biological target: Kdn(a2-3)Gal(b1-4)GlcNAc
Procedure, shortened: as §1

[23] = biological target: Kdn(a2-3)Gal(b1-4)[Fuc(a1-3)]GlcNAc
Procedure, shortened: as §1

Kdn(a2-6)Gal(b1-4)GlcNAc = biological target: Kdn(a2-6)Gal(b1-4)GlcNAc
Procedure, shortened: as §1

[24] = biological target: Man(a1-2)Man(a1-2)Man(a1-3)Man
Procedure, shortened: as §1

[25] = biological target: Man(a1-2)Man(a1-2)Man(a1-3)[Man(a1-2)Man(a1-3)[Man(a1-2)Man(a1-6)]Man(a1-6)]Man(b1-4)GlcNAc(b1-4)GlcNAc
Procedure, shortened: as §1

[26] = biological target: Man(a1-2)Man(a1-2)Man(a1-3)[Man(a1-2)Man(a1-6)[Man(a1-3)]Man(a1-6)]Man(b1-4)GlcNAc(b1-4)GlcNAc
Procedure, shortened: as §1

[27] = biological target: Man(a1-2)Man(a1-2)Man(a1-6)[Man(a1-3)]Man
Procedure, shortened: as §1

Man(a1-2)Man(a1-3)Man = biological target: Man(a1-2)Man(a1-3)Man
Procedure, shortened: as §1

[28] = biological target: Man(a1-2)Man(a1-3)[Man(a1-2)Man(a1-6)]Man
Procedure, shortened: as §1

B1: Epa15 (Candida glabrata) (protein)
chain: MGSSHHHHHHSSGLVPRGSHMASDPTTFPLGCSPEFTKTKKGLSMELYRYDYLPPGSYPCWDSAYLNPSYPRTGYKAKKLIATVDGVSGDINFKFNPKFGCKAIPDYLPSNFNYHEPITITNFTMILYGYFMPKTTAFHTFYVTADDLLFMNFGAGNAFDCCRREETADKFGNYAAYSVWGKKSLKNELTVYLHTGVYYPIRLFYNNRDYIAQLDIRFKTEHSNAIITNFTDYFYSVDDSSLGCPGLI
Question: B1 was tested. Which “glycan array binding signal (z-score)” value [1] did it give?
Answer: Its value is 0.25.

Question: And the “glycan array binding signal (z-score)” value [2]?
Answer: Its value is 0.235.

Question: What about the “glycan array binding signal (z-score)” value [3] of the same binder?
Answer: The value was -0.399.

Question: And the “glycan array binding signal (z-score)” value [4]?
Answer: Its value is 0.615.

Question: And the “glycan array binding signal (z-score)” value [5]?
Answer: The value was 0.574.

Question: What about the “glycan array binding signal (z-score)” value [6] of the same binder?
Answer: The value was -0.295.

Question: What about the “glycan array binding signal (z-score)” value [7] of the same binder?
Answer: Its value is -0.062.

Question: What about the “glycan array binding signal (z-score)” value [8] of the same binder?
Answer: The value was 0.113.

Question: What about the “glycan array binding signal (z-score)” value [9] of the same binder?
Answer: The value was -0.125.

Question: What about the “glycan array binding signal (z-score)” value [10] of the same binder?
Answer: Its value is -0.188.

Question: And the “glycan array binding signal (z-score)” value [11]?
Answer: Its value is -0.516.

Question: And the “glycan array binding signal (z-score)” value (GlcNAc(b1-3)GalNAc)?
Answer: The value was -0.52.

Question: And the “glycan array binding signal (z-score)” value (GlcNAc(b1-3)Man)?
Answer: Its value is -0.578.

Question: And the “glycan array binding signal (z-score)” value [12]?
Answer: Its value is -0.536.

Question: And the “glycan array binding signal (z-score)” value [13]?
Answer: Its value is -0.382.

Question: And the “glycan array binding signal (z-score)” value [14]?
Answer: The value was -0.581.

Question: What about the “glycan array binding signal (z-score)” value [15] of the same binder?
Answer: Its value is -0.28.

Question: What about the “glycan array binding signal (z-score)” value [16] of the same binder?
Answer: Its value is -0.426.

Question: And the “glycan array binding signal (z-score)” value (GlcNAc(b1-4)GlcNAc)?
Answer: The value was -0.491.

Question: And the “glycan array binding signal (z-score)” value [17]?
Answer: The value was -0.534.

Question: What about the “glycan array binding signal (z-score)” value [18] of the same binder?
Answer: The value was 0.079.

Question: What about the “glycan array binding signal (z-score)” value [19] of the same binder?
Answer: The value was -0.023.

Question: And the “glycan array binding signal (z-score)” value [20]?
Answer: The value was -0.458.

Question: And the “glycan array binding signal (z-score)” value [21]?
Answer: Its value is 0.77.

Question: What about the “glycan array binding signal (z-score)” value (GlcNAc(b1-6)GalNAc) of the same binder?
Answer: The value was -0.36.

Question: And the “glycan array binding signal (z-score)” value [22]?
Answer: The value was 0.004.

Question: And the “glycan array binding signal (z-score)” value (Kdn(a2-3)Gal(b1-3)GalNAc)?
Answer: Its value is -0.011.

Question: And the “glycan array binding signal (z-score)” value (Kdn(a2-3)Gal(b1-3)GlcNAc)?
Answer: Its value is -0.172.

Question: And the “glycan array binding signal (z-score)” value (Kdn(a2-3)Gal(b1-4)Glc)?
Answer: The value was 0.002.

Question: And the “glycan array binding signal (z-score)” value (Kdn(a2-3)Gal(b1-4)GlcNAc)?
Answer: Its value is -0.317.

Question: And the “glycan array binding signal (z-score)” value [23]?
Answer: Its value is 0.252.

Question: And the “glycan array binding signal (z-score)” value (Kdn(a2-6)Gal(b1-4)GlcNAc)?
Answer: Its value is -0.301.

Question: And the “glycan array binding signal (z-score)” value [24]?
Answer: The value was -0.485.

Question: What about the “glycan array binding signal (z-score)” value [25] of the same binder?
Answer: Its value is -0.135.

Question: What about the “glycan array binding signal (z-score)” value [26] of the same binder?
Answer: Its value is -0.285.

Question: What about the “glycan array binding signal (z-score)” value [27] of the same binder?
Answer: Its value is -0.411.

Question: What about the “glycan array binding signal (z-score)” value (Man(a1-2)Man(a1-3)Man) of the same binder?
Answer: The value was -0.462.

Question: And the “glycan array binding signal (z-score)” value [28]?
Answer: The value was -0.429.
